Results on 43 compounds are retold here after paper PMC4336329 (PLoS ONE, 2015).

The campaign covered roughly 310,000 compounds. About 2,200 (0.71%) showed an effect of 50% or more. The effect is printed as a negative number. Some of the results follow.

Chain of human ether-à-go-go-related gene (hERG) potassium channel (Q12809 whole entry, looked up): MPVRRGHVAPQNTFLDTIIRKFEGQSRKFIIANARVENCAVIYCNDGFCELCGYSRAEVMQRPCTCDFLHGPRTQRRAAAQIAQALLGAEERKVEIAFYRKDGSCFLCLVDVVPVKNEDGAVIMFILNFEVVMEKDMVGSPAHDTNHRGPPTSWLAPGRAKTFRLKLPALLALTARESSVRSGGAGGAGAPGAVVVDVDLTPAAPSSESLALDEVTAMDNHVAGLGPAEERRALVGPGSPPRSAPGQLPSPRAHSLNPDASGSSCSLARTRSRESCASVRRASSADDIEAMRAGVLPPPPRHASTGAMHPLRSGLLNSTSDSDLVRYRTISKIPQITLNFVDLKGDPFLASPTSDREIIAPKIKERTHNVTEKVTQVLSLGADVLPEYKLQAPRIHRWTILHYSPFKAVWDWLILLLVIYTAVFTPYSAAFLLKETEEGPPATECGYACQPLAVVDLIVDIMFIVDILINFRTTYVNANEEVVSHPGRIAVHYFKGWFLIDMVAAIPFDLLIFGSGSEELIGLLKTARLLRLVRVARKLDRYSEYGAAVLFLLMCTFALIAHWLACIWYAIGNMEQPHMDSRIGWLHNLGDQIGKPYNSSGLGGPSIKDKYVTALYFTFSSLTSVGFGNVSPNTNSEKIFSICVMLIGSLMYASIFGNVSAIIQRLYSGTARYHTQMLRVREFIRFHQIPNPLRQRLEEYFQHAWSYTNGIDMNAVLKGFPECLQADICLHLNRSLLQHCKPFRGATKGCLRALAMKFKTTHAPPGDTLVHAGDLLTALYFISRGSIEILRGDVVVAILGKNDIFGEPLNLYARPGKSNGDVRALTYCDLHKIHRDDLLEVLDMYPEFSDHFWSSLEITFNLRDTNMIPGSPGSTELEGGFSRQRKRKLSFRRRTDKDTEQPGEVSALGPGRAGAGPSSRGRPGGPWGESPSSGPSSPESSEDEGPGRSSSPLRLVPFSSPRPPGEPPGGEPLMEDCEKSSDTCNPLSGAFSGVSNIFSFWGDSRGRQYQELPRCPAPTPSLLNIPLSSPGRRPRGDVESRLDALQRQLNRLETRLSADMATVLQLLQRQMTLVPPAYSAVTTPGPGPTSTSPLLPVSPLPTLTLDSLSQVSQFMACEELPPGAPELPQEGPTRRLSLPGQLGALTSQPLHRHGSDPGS

This assay addresses human ether-à-go-go-related gene (hERG) potassium channel (human, UniProt Q12809). In words: primary screen, population patch clamp on CHO cells stably expressing hERG.
`CCOC(=O)C(C(=O)Nc1ccccc1)C1CCCCC1` (stereo not shown): the “hERG current change (%, negative = inhibition) at 1uM” value is 6.17%.
The figure for `COC(=O)C1=C(C)N(Cc2ccccc2)C(=S)N[C@H]1c1ccccc1` is 6.71%.
The figure for `Nc1cc(=O)[nH]c(SCC(=O)Nc2cccc(Cl)c2)n1` is 3.72%; for `Cc1ccc(Cl)cc1NC(=O)COc1ccccc1` it is 14.2%; for `O=C(COC(=O)CCC(=O)c1ccccc1)Nc1nnc(-c2ccccc2)o1` it is 11.3%.
For the compound `O=C(NC1CCC1)C1CCC(=O)N(Cc2cccc(F)c2)C1` (stereo not shown), the “hERG current change (%, negative = inhibition) at 1uM” value is reported as -4.2%.
Take `Cc1cc(Cl)ccc1C(=O)C1CCCN(C(=O)c2cnn(C(C)C)c2)C1` (stereo not shown): the “hERG current change (%, negative = inhibition) at 1uM” value came to 5.17%.
The result for `C/C(=N/NC(=O)c1ccc(Br)o1)c1cccc(NC(=O)c2ccc(F)cc2)c1` reads -25%; that for `COc1ccccc1NC(=O)CSc1nnc(C2CCCCC2)n1-c1ccccc1`, 2.23%; that for `CC(C)(C)C(=O)Nc1ccc(C(=O)Nc2cccnc2)cc1`, 6.36%.
The result for `O=C(CN1CCCC1c1cccs1)N1CCN(S(=O)(=O)c2cccc(F)c2)CC1` (stereo not shown) reads 7.94%; that for `COC/C=C/C1=CC2=CC(=O)C(C)(OC(=O)c3cnc4ccccc4n3)C(=O)C2=CN1CCN1CCOCC1` (stereo not shown), 14.2%; that for `COc1ccc(CSCCN)cc1Cl.Cl`, 9.92%.
For `CN(C)N=C1c2cc(S(=O)(=O)N3CCOCC3)ccc2-c2ccc(S(=O)(=O)N3CCOCC3)cc21`, the “hERG current change (%, negative = inhibition) at 1uM” value is on record as 7.08%.
The result for `Cc1ccc(S(=O)(=O)N2CCN(C(=O)CCC(=O)N3CCc4ccccc43)CC2)cc1` reads 3.11%.
The result for `CN1CCN(/N=C/c2ccc(OCc3ccccc3)cc2)CC1` reads 6.26%.
The figure for `COc1ccc2cc(CCOC3CCCCO3)ncc2c1` (stereo not shown) is 14.6%; for `CCCCCc1nc2c(c(=O)c3ccccc3n2C)c(=O)n1Cc1ccc(OC)cc1` it is 10.9%; for `CCCCn1c(CN2CCN(c3cccc(Cl)c3)CC2)nc2c1c(=O)n(C)c(=O)n2C` it is -13.7%.
Consider `Oc1ccc(CNCC2COc3ccccc3O2)cc1` (stereo not shown), for which the “hERG current change (%, negative = inhibition) at 1uM” value is listed as 11.7%.
The figure for `CCCCn1c(SCC(=O)N2CCCC2=O)nc2cc(S(N)(=O)=O)ccc21` is 2.33%; for `COc1ccc(NC(=O)c2cc(-c3ccc(C)o3)nc3ccccc23)cc1` it is 17%.
The result for `CC(C)c1nc2sc3c(c2c(=O)n1N)CC(C)(C)OC3` reads 13.5%; that for `COc1ccc(NC(=S)N2CCc3ccccc32)cc1OC`, 35.8%.
In the case of `Nn1c(Cc2cccc3ccccc23)nnc1SCc1c(Cl)cccc1Cl`, the “hERG current change (%, negative = inhibition) at 1uM” value is on record as 14.5%.
With `N#CCC(=O)NCCCOC(=O)Nc1ccc(Cl)c(Cl)c1`, the “hERG current change (%, negative = inhibition) at 1uM” value turned out to be 6.85%.
`Cc1ccccc1NC(=O)c1ccco1`: the “hERG current change (%, negative = inhibition) at 1uM” value turned out to be 13.1%.
As to `O=C(c1ccc(Cl)c(Cl)c1)N1CCC(=O)N(C(CO)Cc2ccccc2)CC1` (stereo not shown), the “hERG current change (%, negative = inhibition) at 1uM” value came out at 18%.
The result for `CC(C)OC(=O)/C(=C\c1ccc2c(c1)c1ccccc1n2C)NC(=O)c1ccccc1` reads 12.7%.
The figure for `CCOC(=O)C1CCN(S(=O)(=O)c2ccc3c(c2)CC(C)N3C(=O)C2CC2)CC1` (stereo not shown) is 11.7%.
On to `Cc1ccc(NC(=O)C[n+]2cc(-c3ccccc3)n3c2CCC3)c(C)c1.[Cl-]`, for which the “hERG current change (%, negative = inhibition) at 1uM” value is given as 5.45%.
The figure for `CC(=O)Nc1ccc(S(=O)(=O)NCCC(=O)N2CCC(Cc3ccccc3)CC2)cc1` is -2.9%; for `Cc1cc(C)nc(SCC(=O)N/N=C/c2cccn2-c2cccc(C(F)(F)F)c2)n1` it is -5.16%.
`N#Cc1ccc(-c2nc3ccc(Br)cc3c(=O)n2O)cc1`: the “hERG current change (%, negative = inhibition) at 1uM” value was 13.7%.
`O=C(Nc1ccc(N2CCOCC2)c(Cl)c1)c1ccc(-n2cnnc2)cc1Cl`: the “hERG current change (%, negative = inhibition) at 1uM” value stood at 7.34%.
The figure for `Cc1cc(N2CCOCC2)n2ncc(-c3ccc(Cl)cc3)c2n1` is 14.8%.
The result for `Clc1ccc2c(NCc3ccccn3)ccnc2c1` reads -8.88%; that for `CCOc1ccc(NC(=O)N(CCN2CCOCC2)Cc2ccc3c(c2)CCCN3CC)cc1`, 2.35%; that for `Cc1cc(S(=O)(=O)n2[nH]c(=O)c(CCO)c2C)c(Cl)cc1Cl`, 14.1%.
The figure for `CC1=CC(C)(C)[N+](C)=CN1c1ccccc1.[I-]` is 3.93%; for `Cc1nnc(NC(=O)c2cc3ccccc3o2)s1` it is 2.11%.
As to `C[C@@]12C(=O)N(c3ccc(C(F)(F)F)cc3)C(=O)N1[C@@H]1c3ccccc3OC[C@@H]1[C@H]2c1ccccc1`, the “hERG current change (%, negative = inhibition) at 1uM” value came out at 18.5%.
For `CCC(=O)N1c2ccc(S(=O)(=O)NCCc3ccc(OC)c(OC)c3)cc2CC1C` (stereo not shown), the “hERG current change (%, negative = inhibition) at 1uM” value was 8.31%.
